In the supplement of paper PMC4723716:
In all, about 3,600 compounds were measured (“viability index relative to DMSO control”: median about 0.81, lowest 2% from about 0.13 on). The list shows a part of the results.
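Further: 384-well serum-free SaLSSA: MitoTracker Red CMXRos staining with saponin lysis, high-content imaging, treated-well particle count divided by plate-mean count of DMSO wells.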

These molecules were tested on Plasmodium falciparum NF54 stage V gametocytes (assay: viability index relative to DMSO control (fraction); higher = less gametocyte killing). Settings: 1.25 µM, incubation time: 72 h.
Molecule `CCOC(=O)c1c(NC(=O)c2cccnc2)sc(C)c1CC` has a viability index of 0.747. Work on `COc1cccc(N2C(=O)/C(=C/c3cccnc3)SC2=S)c1` yielded a viability index of 0.81. Molecule `COc1ccc(C2=NN(C(=O)CCC(=O)O)C(c3ccccc3F)C2)cc1` (configuration not stated) has a viability index of 1.35. Work on `CCc1ccc(NC(=O)COC(=O)c2cccs2)cc1` yielded a viability index of 0.728. `CCN1C(C(=O)c2ccccc2)=C(Nc2c(C)n(C)n(-c3ccccc3)c2=O)c2ccccc2S1(=O)=O` was tested, and the viability index was 0.816. `CC(C)c1nc(N2CCN(C(=S)NCc3ccccc3)CC2)c(C#N)c2c1COC(C)(C)C2` showed a viability index of 0.0888. With `CCOC(=O)C1=C(C)NC(=Cc2cc(C)n(-c3ccccc3C(F)(F)F)c2C)C1=O` the viability index was 0.498. `CCCCn1c(=N)n(CC(O)c2ccc(Cl)c(Cl)c2)c2ccccc21` (configuration not stated) was tested, and the viability index was 0.411. For `N=c1n(Cc2ccccc2)c2ccccc2n1CC(O)c1ccc(Cl)cc1` (configuration not stated), the viability index was 0.657. In the case of `COc1ccc(-c2ccc3c(N)c(C(=O)NCCc4ccccc4)sc3n2)cc1OC`, the viability index was 0.638. Work on `CC12CN(Cc3ccccc3)CC(C)(CN(Cc3cccc(Br)c3)C1)C2` yielded a viability index of 0.996. `Cc1ccc(C)c(NC2=C(c3ccc(C(F)(F)F)cc3)C(=O)c3ccccc32)c1` showed a viability index of 0.904. In the case of `CC(C)(C)c1nn(-c2ccc(Cl)cc2)c2[nH]c(=O)c(CNCc3ccc(Cl)cc3)cc12`, the viability index was 0.391. In the case of `COc1ccc(CNC(=O)C(Cc2c[nH]c3ccccc23)N2CCS(=O)(=O)CC2)cc1` (configuration not stated), the viability index was 1.04. `Cn1c(=NC(=O)c2ccc(S(=O)(=O)N3CCCCC3)cc2)sc2cc(Cl)ccc21` showed a viability index of 0.694. For `COc1cccc(-c2ccc(O)c(CNCC3CCCCC3)c2)n1`, the viability index was 0.615. Work on `O=C(NC(c1ccccc1)c1ccc2cccnc2c1O)c1ccccc1` (configuration not stated) yielded a viability index of 0.714. Molecule `COc1ccc(C)cc1-n1c(-c2ccc(Cl)cc2)cc2c1CC(C)(C)CC2=O` has a viability index of 0.594. Molecule `CC(=O)N(C1=C(N(C)C)C(=O)c2ccccc2C1=O)c1cccc(F)c1` has a viability index of 0.0612. In the case of `Oc1c(CN2CCCCC2)ccc2ccccc12`, the viability index was 0.487. `CCOc1ccccc1-n1c(N)c(C(=O)Nc2ccc(F)cc2)sc1=S` gave a viability index of 1.17. `CC1=C(CC(=O)c2ccc(Cl)cc2)C(=O)c2ccccc2C1=O` was tested, and the viability index was 0.834. `O=c1[nH]nc(SCc2c(F)cccc2[N+](=O)[O-])c(=O)[nH]1` was tested, and the viability index was 0.766. In the case of `C[n+]1c2n(c3ccccc31)N=C(c1ccccc1)CS2`, the viability index was 0.781. `CCC(C)(C)C1CCc2sc3ncnc(NN=Cc4c(Cl)cccc4Cl)c3c2C1` (configuration not stated) was tested, and the viability index was 0.336. `c1ccc(Nc2ccnc(Nc3ccccc3)n2)cc1` was tested, and the viability index was 0.807. `N#Cc1c(-c2ccccc2)cc(N2CCN(C3CCCCC3)CC2)n2c1nc1ccccc12` gave a viability index of 0.822. With `CC(=O)Nc1cccc(NC(=O)CSc2ccc3nnc(-c4ccc(F)cc4)n3n2)c1` the viability index was 0.702. In the case of `CCCN(CCC)S(=O)(=O)c1ccc(C(=O)Nc2ccccc2C(=O)Oc2ccc3c(c2)c(C(=O)OCC)c(C)n3-c2ccccc2)cc1`, the viability index was 0.579. `COc1ccc2c(C)nc(NC(=N)N)nc2c1` was tested, and the viability index was 0.864. With `CC[n+]1c(C=C2Sc3ccc(OC)cc3N2C)ccc2cc(C)ccc21` the viability index was 0.325. Molecule `Cc1cc(C)nc(NC(=N)Nc2cccc(O)c2)n1` has a viability index of 0.656. Work on `COC(=O)C1=C(C)NC2=C(C(=O)CC(c3ccc(OC)c(OC)c3)C2)C1c1ccccc1F` (configuration not stated) yielded a viability index of 0.923. For `COC(=O)C1=C(C)NC2=C(C(=O)CC(c3ccc(OC)c(OC)c3)C2)C1c1cccc(Cl)c1Cl` (configuration not stated), the viability index was 1.07. In the case of `CN(C)c1ccc(C=CC=Cc2cccc[n+]2C)cc1`, the viability index was 0.855. `CN(C)c1cc[n+](Cc2ccccc2)cc1` was tested, and the viability index was 0.959. Work on `O=C(c1cccc(F)c1)N1CCN(Cc2ccncc2)CC1` yielded a viability index of 0.95. In the case of `CCOC(=O)C(=O)N1c2ccc(OC)cc2-c2c(ssc2=S)C1(C)C`, the viability index was 0.358. With `OC(CNCc1ccccc1)Cn1c2ccc(Br)cc2c2cc(Br)ccc21` (configuration not stated) the viability index was 0.498. `COc1cccc(-c2ccc(O)c(CNCC3CC4C=CC3C43CC3)c2)n1` (configuration not stated) gave a viability index of 0.365. In the case of `O=S(=O)(c1ccc(Cl)cc1)N1CCN(C(=S)NCC2CCCO2)CC1` (configuration not stated), the viability index was 0.824. `Cn1c(-c2ccc([N+](=O)[O-])cc2)[n+](C)c2ccccc21` showed a viability index of 0.736. Work on `COc1ccc(C2CC(=O)C3=C(C2)NC(C)=C(C(=O)OC(C)C)C3c2ccc([N+](=O)[O-])cc2)cc1OC` (configuration not stated) yielded a viability index of 0.479. Molecule `Cc1cc(C)c(S(=O)(=O)N2CCCC2CNC(=O)c2cccc([N+](=O)[O-])c2)c(C)c1` (configuration not stated) has a viability index of 1.1. `Cc1oc2c(c1C(=O)NC1CCS(=O)(=O)C1)C(=O)c1ccccc1C2=O` (configuration not stated) gave a viability index of 0.0502. In the case of `Cc1cc(C)nc(SCc2cc(=O)c(OC(=O)c3ccccc3Br)co2)n1`, the viability index was 0.686. In the case of `CCCCNC(=S)N(Cc1cccs1)Cc1cc2cc(C)ccc2[nH]c1=O`, the viability index was 0.837. `O=[N+]([O-])c1ccc(NN=Cc2cccs2)c(S(=O)(=O)N2CCCCCC2)c1` was tested, and the viability index was 0.869. With `CCCCCC(=O)N1c2ccccc2NC2=C(C(=O)CC(c3ccc(OC)c(OC)c3)C2)C1c1ccc(C(F)(F)F)cc1` (configuration not stated) the viability index was 0.475. Molecule `O=C1Nc2ccccc2C1=Nc1ccccc1NS(=O)(=O)c1ccc2ccccc2c1` has a viability index of 0.804. With `CC1CCN(S(=O)(=O)c2ccc(C(=O)Nc3sc4c(c3C(N)=O)CCN(C)C4)cc2)CC1` the viability index was 0.995. In the case of `CCCN1CCc2c(sc3nc(SCC(=O)OC)nc(N)c23)C1`, the viability index was 0.937. Molecule `CC(NS(=O)(=O)c1ccccc1)C(c1cccs1)N1CCN(c2ccccc2F)CC1` (configuration not stated) has a viability index of 0.909. Work on `COc1ccc(S(=O)(=O)Nc2ccc(N3CCC(Cc4ccccc4)CC3)c(C(=O)NC(C)C)c2)cc1` yielded a viability index of 0.565. `COc1ccc(N)cc1NC(=O)c1ccc(Cl)cc1Cl` gave a viability index of 0.875. `CCCCCCCCN[C@H](C)[C@@H](O)c1ccc(SC(C)C)cc1` showed a viability index of 0.841. Work on `C=CCc1c(C)nc2ccc(Br)cc2c1O` yielded a viability index of 0.536.
